In ChEMBL document CHEMBL5606460, “ASAP - DENV-2 NS2B-NS3 protease fluorescence single point” (2024):
Among all 2,000 compounds or so, about 110 (5.5%) showed an effect of 50% or more. The list shows a part of the results.

Biological target: Genome polyprotein (dengue virus type 2) (UniProt P29990)
[1] = Thailand/16681/1984, Concentration 25.0 uM, Number of replicates 1.0

With `O=Cc1ccc(N2CCC(C(=O)N3CCN(c4ccc(O)cc4)CC3)CC2)cc1` the inhibition [1] was 25.7%.

For `Cn1cc(NS(=O)(=O)c2ccc(Oc3ccccc3)cc2)cn1`, the inhibition (Thailand/16681/1984, Concentration 49.5 uM, Number of replicates 2.0, Standard deviation 2.601473805507212 %) was -1.3%, the inhibition (Thailand/16681/1984, Concentration 99.01 uM, Number of replicates 2.0, Standard deviation 1.6601793249753374 %) was 0.407% and the inhibition (Thailand/16681/1984, Concentration 198.0 uM, Number of replicates 2.0, Standard deviation 1.3349353403241033 %) was 2.24%.

For `Cc1cc(CO)c2cccc(C[C@H](NC(=O)c3nc(N)n[nH]3)C(=O)O)c2n1`, the inhibition (Thailand/16681/1984, Concentration 49.95 uM, Number of replicates 2.0, Standard deviation 0.562102066171363 %) was 7.82% and the inhibition (Thailand/16681/1984, Concentration 99.9 uM, Number of replicates 2.0, Standard deviation 0.9519253487191718 %) was 21.3%.

With `CCn1ccnc(N2CC[C@@H](CC(N)=O)C2)c1=O` the inhibition (Thailand/16681/1984, Concentration 49.5 uM, Number of replicates 2.0, Standard deviation 0.1964302765194489 %) was 4.92%, the inhibition (Thailand/16681/1984, Concentration 99.01 uM, Number of replicates 2.0, Standard deviation 0.0724696515531478 %) was 13.3% and the inhibition (Thailand/16681/1984, Concentration 198.0 uM, Number of replicates 2.0, Standard deviation 0.24982898488359928 %) was 28.6%.

`Cc1cc(S(=O)(=O)NCCNC(=O)c2ccc(O)c(NC(=O)c3ccncc3F)c2C)c(C)s1` gave an inhibition (Thailand/16681/1984, Concentration 49.5 uM, Number of replicates 2.0, Standard deviation 0.0696651159595359 %) of -1.95%, an inhibition (Thailand/16681/1984, Concentration 99.01 uM, Number of replicates 2.0, Standard deviation 0.12517951182523615 %) of -1.5% and an inhibition (Thailand/16681/1984, Concentration 198.0 uM, Number of replicates 2.0, Standard deviation 0.5034395957498385 %) of 0.045%.

Molecule `O=Cc1ccc(N2CCC(C(=O)NCc3ccc(F)cc3C(F)(F)F)CC2)cc1` has an inhibition [1] of 14.8%.

With `COc1cccc(-c2ccccc2C(=O)Nc2cnn(C)c2)c1F` the inhibition (Thailand/16681/1984, Concentration 49.5 uM, Number of replicates 2.0, Standard deviation 1.8718256674784317 %) was -4.15%, the inhibition (Thailand/16681/1984, Concentration 99.01 uM, Number of replicates 2.0, Standard deviation 0.7301858896689309 %) was -2.94% and the inhibition (Thailand/16681/1984, Concentration 198.0 uM, Number of replicates 2.0, Standard deviation 2.4339528531715073 %) was -3.18%.

Molecule `CC(C)(CO)NC(=O)c1cc(Cl)cc(NCc2cccc(Oc3ccccn3)c2)c1` has an inhibition (Thailand/16681/1984, Concentration 49.5 uM, Number of replicates 2.0, Standard deviation 0.9055793253974403 %) of -9.2%.

Work on `C[C@]12CC3CC(NC(=O)C4CCN(c5ccc(C=O)cc5)CC4)(C1)C[C@](C)(C3)C2` yielded an inhibition [1] of 15.8%.

For `CNC(=O)[C@@H](C)CNS(=O)(=O)c1ccc(Oc2ccccc2Cl)cc1`, the inhibition (Thailand/16681/1984, Concentration 49.5 uM, Number of replicates 2.0, Standard deviation 0.8337442367954725 %) was -0.747%, the inhibition (Thailand/16681/1984, Concentration 99.01 uM, Number of replicates 2.0, Standard deviation 0.25212885411314173 %) was 0.957% and the inhibition (Thailand/16681/1984, Concentration 198.0 uM, Number of replicates 2.0, Standard deviation 0.23111814436827896 %) was 2.51%.

With `CC(C)CNC(=O)c1cc(Cl)ccc1NS(=O)(=O)c1ccc(Oc2ccccc2Cl)cc1` the inhibition (Thailand/16681/1984, Concentration 49.5 uM, Number of replicates 2.0, Standard deviation 0.23411798845789034 %) was 89.6%, the inhibition (Thailand/16681/1984, Concentration 99.01 uM, Number of replicates 2.0, Standard deviation 0.14645254355523077 %) was 88.7% and the inhibition (Thailand/16681/1984, Concentration 198.0 uM, Number of replicates 2.0, Standard deviation 0.2542297902177128 %) was 84.4%.

With `c1ccn2c(CNCC3CCOCC3)nnc2c1` the inhibition (Thailand/16681/1984, Concentration 49.5 uM, Number of replicates 2.0, Standard deviation 2.7665035419211352 %) was -3.17%, the inhibition (Thailand/16681/1984, Concentration 99.01 uM, Number of replicates 2.0, Standard deviation 2.4078733948373303 %) was -3.24% and the inhibition (Thailand/16681/1984, Concentration 198.0 uM, Number of replicates 2.0, Standard deviation 4.372243026006982 %) was -2.65%.

Work on `Cc1nn(CC(=O)Nc2ccc(F)cc2)cc1C1CCNCC1` yielded an inhibition (Thailand/16681/1984, Concentration 49.5 uM, Number of replicates 2.0, Standard deviation 1.8924243865107444 %) of -1.42%, an inhibition (Thailand/16681/1984, Concentration 99.01 uM, Number of replicates 2.0, Standard deviation 0.7306080535770403 %) of -0.829% and an inhibition (Thailand/16681/1984, Concentration 198.0 uM, Number of replicates 2.0, Standard deviation 0.9421356473344553 %) of -0.039%.

Molecule `Cn1ccnc1[C@@H](O)C1CCN(C(=O)C2CCN(c3ccc(C=O)cc3)CC2)CC1` has an inhibition [1] of 14%.

In the case of `OB1CCc2ccc(N3CC[C@@H](O)C3)cc2O1`, the inhibition (Thailand/16681/1984, Concentration 49.5 uM, Number of replicates 2.0, Standard deviation 0.6770308743828706 %) is reported as 2.45%, the inhibition (Thailand/16681/1984, Concentration 99.01 uM, Number of replicates 2.0, Standard deviation 0.2576934182283381 %) is reported as 3.1% and the inhibition (Thailand/16681/1984, Concentration 198.0 uM, Number of replicates 2.0, Standard deviation 4.849321137785832 %) is reported as -0.748%.

For `CC[C@H](C#N)NC(=O)c1cc(Cl)ccc1NS(=O)(=O)c1ccc(Oc2ccccc2Cl)cc1`, the inhibition (Thailand/16681/1984, Concentration 49.5 uM, Number of replicates 2.0, Standard deviation 0.706613157296788 %) was 44.6%, the inhibition (Thailand/16681/1984, Concentration 99.01 uM, Number of replicates 2.0, Standard deviation 0.473003628419333 %) was 22.1% and the inhibition (Thailand/16681/1984, Concentration 198.0 uM, Number of replicates 2.0, Standard deviation 1.2548162043536224 %) was 2.91%.

`O=Cc1ccc(N2CCC(C(=O)NC3CCC(C(F)(F)F)CC3)CC2)cc1` (stereo not given) showed an inhibition [1] of 17.2%.

Molecule `Cc1cnccc1NC(=O)CNCC(C)C` has an inhibition (Thailand/16681/1984, Concentration 49.5 uM, Number of replicates 2.0, Standard deviation 1.1660707043110226 %) of -2.62%, an inhibition (Thailand/16681/1984, Concentration 99.01 uM, Number of replicates 2.0, Standard deviation 0.6960754336447001 %) of -3.33% and an inhibition (Thailand/16681/1984, Concentration 198.0 uM, Number of replicates 2.0, Standard deviation 0.02675195344901679 %) of -1.71%.

Molecule `Cc1ccc(C)c(N2CCN(C(=O)C3CCN(c4ccc(C=O)cc4)CC3)CC2)c1` has an inhibition [1] of 8.15%.

Molecule `Cc1cc(NC(=O)c2[nH]c([C@H]3CCCNC3)nc2C)n[nH]1` has an inhibition (Thailand/16681/1984, Concentration 49.5 uM, Number of replicates 2.0, Standard deviation 0.1819338679741269 %) of -0.694%, an inhibition (Thailand/16681/1984, Concentration 99.01 uM, Number of replicates 2.0, Standard deviation 0.4335851561467917 %) of -1.03% and an inhibition (Thailand/16681/1984, Concentration 198.0 uM, Number of replicates 2.0, Standard deviation 0.7148425402027826 %) of -1.18%.
